# The campaign covered roughly 390,000 compounds. About 4,000 (1%) were called active. This list was built around the results that the source calls inconclusive (neither active nor inactive); the mix of calls is not that of the screen. The call rests on the fitted dose curve; in most records, active means well fitted inhibition curve with a large enough effect; inconclusive means small, poorly fitted or top-dose-only effect; inactive means no such curve, though single readings can be large or run the other way. Where the call is inconclusive, the potency comes from a doubtful curve fit.
# Molecular target: Thioredoxin reductase 1, cytoplasmic (Rattus norvegicus) (UniProt O89049)
# Test: qHTS Assay for Inhibitors of Mammalian Selenoprotein Thioredoxin Reductase 1 (TrxR1): qHTS; further: nearly all actives have a fitted effect of over 65% in size
# Settings: recombinant rTrxR1, NADPH fluorescence consumption, selenite substrate; series mostly up to 114 µM
# Summary of the method: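 Rat TrxR1 (90 nM in the dispensed reagent) was pre-reduced with 400 uM NADPH for 5 min at room temperature, then incubated with compound for 15 min. After 400 uM selenite was added, NADPH fluorescence (Ex 340/Em 450 nm) was followed for 8 min.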
# On the % scale 0 is the no-effect control and ±100 the full control effect; potency means the concentration at half of the fitted maximal effect; tags describe the fitted curve by direction and shape.
# Chain of UniProt O89049 (O89049 whole entry, looked up): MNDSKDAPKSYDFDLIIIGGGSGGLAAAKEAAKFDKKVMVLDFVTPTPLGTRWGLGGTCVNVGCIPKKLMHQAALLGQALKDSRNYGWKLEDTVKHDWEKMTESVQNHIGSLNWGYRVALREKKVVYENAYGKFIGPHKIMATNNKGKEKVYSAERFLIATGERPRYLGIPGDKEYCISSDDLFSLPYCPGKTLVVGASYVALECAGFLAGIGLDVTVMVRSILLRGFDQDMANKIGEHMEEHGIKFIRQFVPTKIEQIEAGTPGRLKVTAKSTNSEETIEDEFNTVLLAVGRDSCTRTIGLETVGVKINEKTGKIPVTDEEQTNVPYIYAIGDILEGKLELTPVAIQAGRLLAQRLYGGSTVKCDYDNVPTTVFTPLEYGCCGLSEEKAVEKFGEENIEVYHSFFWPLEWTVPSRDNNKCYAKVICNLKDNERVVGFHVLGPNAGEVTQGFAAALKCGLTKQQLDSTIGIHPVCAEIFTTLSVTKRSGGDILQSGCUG
row,SMILES,Potency
1,Cc1cccc(NC(=O)CCc2nc3sc4c(c3c(=O)[nH]2)CCCC4)c1,inactive
2,COc1ccc(-c2ccoc2)cc1C1C2C=CCC(C)C2C(=O)N1Cc1ccccc1 (stereo unspecified),"inconclusive: 70.8 µM [inhibitor, single point]"
3,COc1ccccc1CNC(=O)c1ccc(-c2nc(CS(=O)c3ccc(C)cc3)c(C)o2)cc1 (stereo unspecified),"inconclusive: 31.6 µM [inhibitor, full curve]"
4,CCOc1cc(/C=C/c2ccc3cccc([N+](=O)[O-])c3n2)ccc1O,"inconclusive: 79.4 µM [inhibitor, single point]"
5,COc1cc(C(=O)OCC(=O)NC2CCCC2)cc(OC)c1OC,"inconclusive: 79.4 µM [inhibitor, partial curve, poor fit]"
6,O=S(=O)(CCN1CCN(C(c2ccccc2)c2ccccc2)CC1)C(F)(F)F,active: 1.58 µM
7,O=C(NCCCCCNC(=O)c1ccccn1)c1ccccn1,inactive
8,Cc1ccc(/C=C/C(=O)NCc2cccs2)o1,"inconclusive: 25.1 µM [inhibitor, partial curve]"
9,C/C(Cn1nnc([N+](=O)[O-])n1)=N\NC(=O)c1ccccc1,"inconclusive: 79.4 µM [inhibitor, single point]"
10,N[C@@H](Cc1c[nH]c2ccc(O)cc12)C(=O)O,"inconclusive: 39.8 µM [inhibitor, partial curve] [middle of 4 runs]"
11,COc1cnc(-c2cccc(C(F)(F)F)c2)[nH]c1=O,"inconclusive: 89.1 µM [inhibitor, single point]"
12,N#CC1=C(N)SC(N)=C(C#N)C1c1ccc([N+](=O)[O-])cc1,active: 50.1 µM
13,Cc1cc(/C=C2/C(=O)N(C)C(=S)N2C)c(C)n1C1CC1,"inconclusive: 56.2 µM [inhibitor, partial curve]"
14,O=C(Oc1ccc2c(=O)c(Cl)coc2c1)c1ccncc1,"inconclusive: 17.8 µM [inhibitor, partial curve, poor fit]"
15,O=C(NC(NC(=S)Nc1cc(Cl)ccc1Cl)C(Cl)(Cl)Cl)c1ccco1 (stereo unspecified),"inconclusive: 3.98 µM [inhibitor, full curve, poor fit]"
16,CC(/C=C/c1ccco1)=N\NC(=O)c1cccnc1,"inconclusive: 15.8 µM [inhibitor, full curve]"
17,Cc1ccc(NC(=O)CN(C)S(=O)(=O)c2ccc3c(c2)n(C)c(=O)c(=O)n3C)cc1F,inactive
18,COc1ccc2c(c1)c1ccc3c(c1n2C)C(=O)C=CC3=O,"inconclusive: 20 µM [inhibitor, single point]"
19,O=[N+]([O-])c1ccc(N2CCOCC2)nc1,inactive
20,Cc1c(C(=O)OCC(=O)NCc2ccccc2)oc2ccccc12,"inconclusive: 89.1 µM [inhibitor, single point]"
21,O=C(c1ccc(NC(=S)NCc2ccco2)cc1)N1CCOCC1,"inconclusive: 89.1 µM [inhibitor, single point]"
22,Cc1cccc(Cn2cc(/C=C/[N+](=O)[O-])c3ccccc32)c1,"inconclusive: 50.1 µM [inhibitor, partial curve]"

row,SMILES,Potency
1,CCCCNC(=S)N/N=C/c1ccc(C#N)cc1,inactive
2,Fc1ccc(N2CCN(c3nc4ccccc4c4nc(-c5cccnc5)nn34)CC2)cc1,inactive
3,OCc1cc(Br)ccc1OCc1nc2ccccc2s1,inactive
4,O=c1[nH]n2c(=O)c3c([nH]c2c1N=Nc1cccc(Cl)c1)CCC3,"inconclusive: 50.1 µM [inhibitor, single point]"
5,N#CC(Cc1ccc(O)c(O)c1)C(=O)N1CCc2ccccc21 (stereo unspecified),"inconclusive: 31.6 µM [inhibitor, partial curve]"
6,C/C(CC(=O)Nc1cc(C)cc(C)c1)=N\NC(=O)c1ccccn1,"inconclusive: 39.8 µM [inhibitor, full curve]"
7,CCOC(=O)c1cc2c(=O)n3ccccc3nc2n(Cc2ccco2)c1=NC(=O)c1ccc(Br)cc1,"inconclusive: 44.7 µM [inhibitor, partial curve]"
8,Cc1cc(C)cc(N=Cc2ccc([N+](=O)[O-])s2)c1,"inconclusive: 79.4 µM [inhibitor, single point]"
9,Cn1cccc1Cc1nnc(SCC(=O)NCc2ccco2)n1-c1ccc(F)cc1,"inconclusive: 20 µM [inhibitor, partial curve, poor fit]"
10,O=C(/C=C\c1ccco1)c1ccc(NC(=O)c2ccco2)cc1,"inconclusive: 22.4 µM [inhibitor, partial curve]"
11,O=C(Nc1ccc(Oc2ccccc2)cc1)c1ccc(F)c(S(=O)(=O)N2CCN(c3cccc(Cl)c3)CC2)c1,inactive
12,CNC(=O)COC(=O)/C=C/c1cn(-c2ccccc2)nc1-c1ccc(C)o1,"inconclusive: 44.7 µM [inhibitor, partial curve, poor fit]"
13,CC#CCN1c2ccccc2[C@]23C[C@@H](C(=O)OC)N(C(=O)c4cc(C)oc4C)C2=NC(C(=O)OC)=C(C(=O)OC)[C@H]13,inactive
14,CCOc1ccc2[nH]c(=O)c(C(c3nnnn3CC3CCCO3)N3CCc4ccccc4C3)cc2c1 (stereo unspecified),inactive
15,CC(C)Sc1nc(SCC(=O)NCc2ccco2)c2c3c(sc2n1)COC(C)(C)C3,"inconclusive: 31.6 µM [inhibitor, single point]"
16,COc1ccc(C#Cc2c(-c3ccccc3)n(C)c3ccccc23)cc1,"inconclusive: 20 µM [inhibitor, partial curve, poor fit]"
17,CC1=C(C(=O)OCC2CCCO2)C(c2ccccc2)C2=C(CCCC2=O)N1 (stereo unspecified),"inconclusive: 89.1 µM [inhibitor, single point]"
18,CCOc1cccc2cc(-c3nnc(NCc4ccc5c(c4)OCO5)s3)c(=O)oc12,"inconclusive: 89.1 µM [inhibitor, single point]"
19,O=C(O)/C=C/c1ccc(O)c(O)c1,"inconclusive: 1.06 µM [inhibitor, full curve, poor fit]"
20,Cc1ccc(NC(=O)Cc2ccc(NC(=O)N3CCCCc4ccccc43)cc2)cc1Cl,inactive
21,N#Cc1c(NC(=S)NC(=O)c2ccccc2)sc2c1CCC2,"inconclusive: 28.2 µM [inhibitor, partial curve]"
22,Cc1cc(C)n(-c2ccc(NC(=O)C3CCN(Cc4cc(C)c(C)o4)CC3)cc2)n1,"inconclusive: 56.2 µM [inhibitor, single point]"

row,SMILES,Potency
1,N#Cc1ccc(/C=C/C(=O)c2ccc3c(c2)OCO3)cc1,"inconclusive: 31.6 µM [inhibitor, partial curve]"
2,COc1ccc(/C=C2/C(=O)ON=C2C)cc1Cl,"inconclusive: 50.1 µM [inhibitor, partial curve, poor fit]"
3,O=[N+]([O-])c1ccc(/C=C/C2=NN(c3ccccc3)C(c3ccco3)C2)cc1 (stereo unspecified),"inconclusive: 89.1 µM [inhibitor, single point]"
4,CNC(=O)c1ccc(Nc2nnc(-c3ccc(O)cc3)c3ccccc23)cc1,"inconclusive: 79.4 µM [inhibitor, single point]"
5,CCc1c(C(=O)N/N=C/c2cn[nH]c2-c2ccc(F)cc2)csc1C,"inconclusive: 89.1 µM [inhibitor, single point]"
6,COc1ccc2c(c1)Cc1sc(NC(=O)c3ccccc3C)nc1-2,"inconclusive: 79.4 µM [inhibitor, partial curve, poor fit]"
7,Cc1ccc(S(=O)(=O)N/N=C\c2ccc([N+](=O)[O-])o2)cc1,"inconclusive: 39.8 µM [inhibitor, single point]"
8,COc1cccc(-n2c(Cn3nc(C(F)(F)F)cc3C)n[nH]c2=S)c1,"inconclusive: 11.2 µM [inhibitor, partial curve, poor fit]"
9,CCc1ccc(S(=O)(=O)/N=C2\C=C(NS(=O)(=O)c3ccccc3)C(=O)c3ccccc32)cc1,"inconclusive: 79.4 µM [inhibitor, single point]"
10,Cc1cc[n+](C2CCCCC2)c2ccccc12,inactive
11,C/C(=N\NC(=O)c1ccn(C)n1)c1cccc(NC(=O)c2ccc(C)s2)c1,"inconclusive: 89.1 µM [inhibitor, single point]"
12,Oc1ccc2ccccc2c1SSc1c(O)ccc2ccccc12,"inconclusive: 1.89 µM [inhibitor, partial curve]"
13,CCc1ccc(-n2nc(CO)c(C(=O)NC(C)c3ccc(Cl)cc3)n2)cc1 (stereo unspecified),"inconclusive: 89.1 µM [inhibitor, single point]"
14,CCOC(=O)N1CCN(c2cc(=O)n(Cc3ccc(F)cc3)c(=O)[nH]2)CC1,"inconclusive: 3.98 µM [inhibitor, full curve]"
15,CCOC(=O)c1c(NC(=O)CCl)sc(CN(C)C)c1-c1ccccc1,"inconclusive: 15.8 µM [inhibitor, partial curve]"
16,COc1cc(OC)nc(NC(=O)CCl)n1,"inconclusive: 44.7 µM [inhibitor, partial curve]"
17,Cc1nn(Cc2ccccc2)c(C)c1NC(=O)c1cc(-c2ccco2)on1,"inconclusive: 17.8 µM [inhibitor, full curve]"
18,COc1ccc2oc(=O)c(-c3nnc(NCc4ccco4)s3)cc2c1,active: 15.8 µM
19,Cn1c(-c2ccco2)nc2cc3ccccc3cc21,"inconclusive: 3.55 µM [inhibitor, full curve, poor fit]"
20,COc1ccc(NC(=O)Nc2sc(=S)n(C)c2C)cc1,inactive
21,CN(C)c1oc(-c2ccccc2Cl)nc1S(=O)(=O)c1ccccc1,"inconclusive: 70.8 µM [inhibitor, partial curve]"
22,CCn1c(SCC(=O)NCc2ccco2)nnc1C(C)C,"inconclusive: 39.8 µM [inhibitor, single point]"
